# According to the supplement of paper PMC12217912:
# Some of the results follow. The full chains were built here from the parent and the listed change. Values near 0.05 are background.
# B1: TEV protease; numbered along this chain (parent)
# chain: MGESLFKGPRDYNPISSSICHLTNESDGHTTSLYGIGFGPFIITNKHLFRRNNGTLVVQSLHGVFKVKDTTTLQQHLVDGRDMIIIRMPKDFPPFPQKLKFREPQREERICLVTTNFQTKSMSSMVSDTSCTFPSGDGIFWKHWIQTKDGQCGSPLVSTRDGFIVGIHSASNFTNTNNYFTSVPKNFMELLTNQEAQQWVSGWRLNADSVLWGGHKVFMVKPEEPFQPVKEATQL
# Variants of: B1
# Assay: raw area under fraction-flipped curve 0-4 h after induction (AUC4h, not background-subtracted), DNA-recorder readout of cleavage of the substrate (dimensionless); higher = more cleavage of the substrate by the protease variant
# Details: temperature: 34 °C; time window: 0-4 h after rhamnose induction
# Procedure: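 In vivo DNA recorder in E. coli TOP10(DE3) ΔrhaA at 34 °C. Each TEVp single-site mutant (parent TEVp 0) is paired with a single-site variant of the 7-mer TEVs (canonical ENLYFQ|S). The substrate sits between flexible linkers in a Bxb1-sfGFP-TEVs-SsrA fusion, so cleavage stabilises Bxb1 and speeds flipping of a recombination array, read by NGS. The value is the raw area under the fraction-flipped curve over 0-4 h after rhamnose induction (AUC4h), with ≥20 reads per time point. It is not background-subtracted; inactive controls average about 0.047.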
# 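Also: Bxb1 expression induced with 0.2% (w/v) L-rhamnose at OD600 near 0.5, cultures sampled hourly, flipped fraction per protease–substrate barcode pair counted by paired-end Illumina sequencing.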
variant,measurement,value
MGESLFKGPRDYNPISSSICHLTNESDGHTTSLYGIGFGPFIITNKHLMRRNNGTLVVQSLHGVFKVKDTTTLQQHLVDGRDMIIIRMPKDFPPFPQKLKFREPQREERICLVTTNFQTKSMSSMVSDTSCTFPSGDGIFWKHWIQTKDGQCGSPLVSTRDGFIVGIHSASNFTNTNNYFTSVPKNFMELLTNQEAQQWVSGWRLNADSVLWGGHKVFMVKPEEPFQPVKEATQL [F49M],area with substrate ENLYAQS,0.0605
same,area with substrate ENLYCQS,0.0745
same,area with substrate ENLYDQS,0.0576
same,area with substrate ENLYEQS,0.0726
same,area with substrate ENLYGQS,0.0537
same,area with substrate ENLYHQS,0.0615
same,area with substrate ENLYIQS,0.0634
same,area with substrate ENLYKQS,0.0617
same,area with substrate ENLYLQS,0.057
same,area with substrate ENLYMQS,0.0446
same,area with substrate ENLYNQS,0.0285
same,area with substrate ENLYPQS,0.0544
same,area with substrate ENLYRQS,0.0621
same,area with substrate ENLYSQS,0.0587
same,area with substrate ENLYTQS,0.0652
same,area with substrate ENLYVQS,0.0816
same,area with substrate ENLYWQS,0.0603
same,area with substrate ENLYYQS,0.0663
MGESLFKGPRDYNPISSSICHLTNESDGHTTSLYGIGFGPFIITNKHLFHRNNGTLVVQSLHGVFKVKDTTTLQQHLVDGRDMIIIRMPKDFPPFPQKLKFREPQREERICLVTTNFQTKSMSSMVSDTSCTFPSGDGIFWKHWIQTKDGQCGSPLVSTRDGFIVGIHSASNFTNTNNYFTSVPKNFMELLTNQEAQQWVSGWRLNADSVLWGGHKVFMVKPEEPFQPVKEATQL [R50H],area with substrate ENLYAQS,0.0536
same,area with substrate ENLYDQS,0.0569
same,area with substrate ENLYEQS,0.0679
same,area with substrate ENLYHQS,0.0582
same,area with substrate ENLYKQS,0.0514
same,area with substrate ENLYLQS,0.0814
same,area with substrate ENLYMQS,0.106
same,area with substrate ENLYPQS,0.0762
same,area with substrate ENLYRQS,0.0673
same,area with substrate ENLYTQS,0.0887
same,area with substrate ENLYWQS,0.117
MGESLFKGPRDYNPISSSICHLTNESDGHTTSLYGIGFGPFIITNKHLFPRNNGTLVVQSLHGVFKVKDTTTLQQHLVDGRDMIIIRMPKDFPPFPQKLKFREPQREERICLVTTNFQTKSMSSMVSDTSCTFPSGDGIFWKHWIQTKDGQCGSPLVSTRDGFIVGIHSASNFTNTNNYFTSVPKNFMELLTNQEAQQWVSGWRLNADSVLWGGHKVFMVKPEEPFQPVKEATQL [R50P],area with substrate ENLYAQS,0.0675
same,area with substrate ENLYCQS,0.0757
same,area with substrate ENLYDQS,0.0668
same,area with substrate ENLYEQS,0.055
same,area with substrate ENLYGQS,0.0665
same,area with substrate ENLYHQS,0.0543
same,area with substrate ENLYIQS,0.0965
same,area with substrate ENLYKQS,0.0583
same,area with substrate ENLYMQS,0.068
same,area with substrate ENLYNQS,0.0673
same,area with substrate ENLYPQS,0.0657
same,area with substrate ENLYQQS,0.0658
same,area with substrate ENLYRQS,0.0062
same,area with substrate ENLYTQS,0.0611
same,area with substrate ENLYVQS,0.135
same,area with substrate ENLYWQS,0.0714
same,area with substrate ENLYYQS,0.0609
MGESLFKGPRDYNPISSSICHLTNESDGHTTSLYGIGFGPFIITNKHLFRRCNGTLVVQSLHGVFKVKDTTTLQQHLVDGRDMIIIRMPKDFPPFPQKLKFREPQREERICLVTTNFQTKSMSSMVSDTSCTFPSGDGIFWKHWIQTKDGQCGSPLVSTRDGFIVGIHSASNFTNTNNYFTSVPKNFMELLTNQEAQQWVSGWRLNADSVLWGGHKVFMVKPEEPFQPVKEATQL [N52C],area with substrate ENLYAQS,0.0667
same,area with substrate ENLYCQS,0.0615
same,area with substrate ENLYDQS,0.0603
same,area with substrate ENLYEQS,0.0593
same,area with substrate ENLYGQS,0.0632
same,area with substrate ENLYHQS,0.0663
same,area with substrate ENLYIQS,0.0574
same,area with substrate ENLYKQS,0.0534
same,area with substrate ENLYLQS,0.0564
same,area with substrate ENLYMQS,0.0635
same,area with substrate ENLYNQS,0.0741
same,area with substrate ENLYPQS,0.0706
same,area with substrate ENLYQQS,0.0505
same,area with substrate ENLYRQS,0.0571
same,area with substrate ENLYSQS,0.0541
same,area with substrate ENLYTQS,0.0731
same,area with substrate ENLYVQS,0.0792
same,area with substrate ENLYWQS,0.049
MGESLFKGPRDYNPISSSICHLTNESDGHTTSLYGIGFGPFIITNKHLFRRNCGTLVVQSLHGVFKVKDTTTLQQHLVDGRDMIIIRMPKDFPPFPQKLKFREPQREERICLVTTNFQTKSMSSMVSDTSCTFPSGDGIFWKHWIQTKDGQCGSPLVSTRDGFIVGIHSASNFTNTNNYFTSVPKNFMELLTNQEAQQWVSGWRLNADSVLWGGHKVFMVKPEEPFQPVKEATQL [N53C],area with substrate ENLYAQS,0.0794
same,area with substrate ENLYCQS,0.0822
same,area with substrate ENLYDQS,0.0514
same,area with substrate ENLYEQS,0.0607
same,area with substrate ENLYGQS,0.0687
same,area with substrate ENLYHQS,0.0652
same,area with substrate ENLYIQS,0.0992
same,area with substrate ENLYKQS,0.0597
same,area with substrate ENLYLQS,0.0585
same,area with substrate ENLYNQS,0.0834
same,area with substrate ENLYPQS,0.0642
same,area with substrate ENLYSQS,0.0689
same,area with substrate ENLYVQS,0.113
same,area with substrate ENLYYQS,0.083
MGESLFKGPRDYNPISSSICHLTNESDGHTTSLYGIGFGPFIITNKHLFRRNMGTLVVQSLHGVFKVKDTTTLQQHLVDGRDMIIIRMPKDFPPFPQKLKFREPQREERICLVTTNFQTKSMSSMVSDTSCTFPSGDGIFWKHWIQTKDGQCGSPLVSTRDGFIVGIHSASNFTNTNNYFTSVPKNFMELLTNQEAQQWVSGWRLNADSVLWGGHKVFMVKPEEPFQPVKEATQL [N53M],area with substrate ENLYAQS,0.0801
same,area with substrate ENLYCQS,0.0533
same,area with substrate ENLYDQS,0.0581
same,area with substrate ENLYEQS,0.076
same,area with substrate ENLYHQS,0.0664
same,area with substrate ENLYIQS,0.118
same,area with substrate ENLYKQS,0.0558
same,area with substrate ENLYLQS,0.0816
same,area with substrate ENLYMQS,0.0672
same,area with substrate ENLYNQS,0.0625
same,area with substrate ENLYQQS,0.0565
same,area with substrate ENLYRQS,0.061
same,area with substrate ENLYSQS,0.0375
same,area with substrate ENLYWQS,0.057
MGESLFKGPRDYNPISSSICHLTNESDGHTTSLYGIGFGPFIITNKHLFRRNSGTLVVQSLHGVFKVKDTTTLQQHLVDGRDMIIIRMPKDFPPFPQKLKFREPQREERICLVTTNFQTKSMSSMVSDTSCTFPSGDGIFWKHWIQTKDGQCGSPLVSTRDGFIVGIHSASNFTNTNNYFTSVPKNFMELLTNQEAQQWVSGWRLNADSVLWGGHKVFMVKPEEPFQPVKEATQL [N53S],area with substrate ENLYAQS,0.0881
same,area with substrate ENLYCQS,0.0854
same,area with substrate ENLYDQS,0.052
same,area with substrate ENLYEQS,0.0671
same,area with substrate ENLYGQS,0.0774
same,area with substrate ENLYHQS,0.0805
same,area with substrate ENLYIQS,0.122
same,area with substrate ENLYNQS,0.0729
same,area with substrate ENLYPQS,0.0747
same,area with substrate ENLYQQS,0.0601
same,area with substrate ENLYRQS,0.0585
same,area with substrate ENLYSQS,0.074
same,area with substrate ENLYTQS,0.0783
same,area with substrate ENLYVQS,0.108
same,area with substrate ENLYWQS,0.089
same,area with substrate ENLYYQS,0.07
MGESLFKGPRDYNPISSSICHLTNESDGHTTSLYGIGFGPFIITNKHLFRRNVGTLVVQSLHGVFKVKDTTTLQQHLVDGRDMIIIRMPKDFPPFPQKLKFREPQREERICLVTTNFQTKSMSSMVSDTSCTFPSGDGIFWKHWIQTKDGQCGSPLVSTRDGFIVGIHSASNFTNTNNYFTSVPKNFMELLTNQEAQQWVSGWRLNADSVLWGGHKVFMVKPEEPFQPVKEATQL [N53V],area with substrate ENLYAQS,0.0636
same,area with substrate ENLYDQS,0.061
same,area with substrate ENLYEQS,0.0532
same,area with substrate ENLYGQS,0.0655
same,area with substrate ENLYHQS,0.0567
same,area with substrate ENLYIQS,0.101
same,area with substrate ENLYKQS,0.0521
same,area with substrate ENLYMQS,0.0663
same,area with substrate ENLYNQS,0.0693
same,area with substrate ENLYPQS,0.0639
same,area with substrate ENLYQQS,0.0738
same,area with substrate ENLYRQS,0.0672
same,area with substrate ENLYSQS,0.0815
same,area with substrate ENLYVQS,0.0935
same,area with substrate ENLYYQS,0.0383
MGESLFKGPRDYNPISSSICHLTNESDGHTTSLYGIGFGPFIITNKHLFRRNNQTLVVQSLHGVFKVKDTTTLQQHLVDGRDMIIIRMPKDFPPFPQKLKFREPQREERICLVTTNFQTKSMSSMVSDTSCTFPSGDGIFWKHWIQTKDGQCGSPLVSTRDGFIVGIHSASNFTNTNNYFTSVPKNFMELLTNQEAQQWVSGWRLNADSVLWGGHKVFMVKPEEPFQPVKEATQL [G54Q],area with substrate ENLYAQS,0.0472
same,area with substrate ENLYCQS,0.0578
same,area with substrate ENLYDQS,0.0796
same,area with substrate ENLYEQS,0.0599
same,area with substrate ENLYGQS,0.0676
same,area with substrate ENLYHQS,0.0644
same,area with substrate ENLYIQS,0.0748
same,area with substrate ENLYKQS,0.0509
same,area with substrate ENLYMQS,0.056
same,area with substrate ENLYNQS,0.0627
same,area with substrate ENLYPQS,0.0529
same,area with substrate ENLYQQS,0.055
same,area with substrate ENLYRQS,0.0595
same,area with substrate ENLYSQS,0.0875
same,area with substrate ENLYTQS,0.0587
same,area with substrate ENLYVQS,0.076
same,area with substrate ENLYWQS,0.0674
same,area with substrate ENLYYQS,0.0543
